This sample is rich in variants without activity.
B1: tRNA (parent)
chain: CUCUCGGUAGCCAAGUUGGUUUAAGGCGCAAGACUUUAAUUUAUCACUACGAAAUCUUGAGAUCGGGCGUUCGACUCGCCCCCGGGAGAUUUUUUCCUCGAGCAA

Variants of: B1
Test: nonsense suppression (GFP-seq) (ratio to wild type); higher = more function; SUP4oc tRNA, yeast GFP reporter sort-seq
Summary of the method: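 Sorted GFP/RFP bins of yeast were each Illumina-sequenced with a phred ≥30 cutoff; the cells held a genome-integrated ochre-suppressor tRNA variant from a library with ~3% random mutations, a galactose-driven GFP ochre reporter, and RFP. Culture was in raffinose/galactose medium containing 80 mg/L adenine. Nonsense suppression, termed GFPSEQ, is the median GFP/RFP of the bins weighted by each variant's estimated cell share per bin, relative to the unmutated parent tRNA, for variants reaching ≥100 reads and ≥30 cells.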

**Q.** For CUCUCGGUAGCCAAUUUGGUUUAAGGCGCAAGACUUUAAUUUAUCACUACGAAAUCUUGAGAUCGGGCGGUCGACUCGCCCCCGGGAGAUUUUUUCCUCGAGCAA [G15U U70G], which nonsense suppression is on record?
**A.** ≤ 0.026

**Q.** With CUCUCGGUAGCCAAUUUGGUUUAAGGCGCAAGACUUUAAUUUAUCACUACGAAAUCUUGAGAUCGGGCGUUCGACCCGCCCCCGGGAGAUUUUUUCCUCGAGCAA [G15U U76C] as the variant, how does the nonsense suppression read?
**A.** ≤ 0.026

**Q.** For CUCUCGGUAGCCAAUUUGGUUUAAGGCGCAAGACUUUAAUUUAUCACUACGAAAUCUUGAGAUCGGGCGUUCGACGCGCCCCCGGGAGAUUUUUUCCUCGAGCAA [G15U U76G], which nonsense suppression is on record?
**A.** ≤ 0.026

**Q.** Which nonsense suppression does the source give for CUCUCGGUAGCCAAGAUGGUUUAAGGCGCAAGACUUUAAUUUAUCACUACGAAAUCUUGAGAUCGGGCGUUCGACUCGCCCCCGGGAGAUUUUUUCCUCGAGCAA [U16A] here?
**A.** 1

**Q.** With CUCUCGGUAGCCAAGAUGGUUUCAGGCGCAAGACGUUAAUUUAUCACUACGAAAUCUUGCGAUCGGGCGUUCGACUCGCCCCCGGGAGAUUUUUUCCUCGAGCAA [U16A A23C U35G A60C] as the variant, how does the nonsense suppression read?
**A.** ≤ 0.026

**Q.** Which nonsense suppression does the source give for CUCUCGGUAGCCAAGAUGGUUUGAGGCGCAGGACUUUAAUUUAUCACUACGAAAUCUUGAGAUCGGGCGUUCGACUCGCCCCCGGGAGAUUUUUUCCUCGAGCAA [U16A A23G A31G] here?
**A.** ≤ 0.026

**Q.** With CUCUCGGUAGCCAAGAUGGUUUGAGGCGCAAGACUUUAAUUUAUCACUACGAAAUCUUGAGAUCGGGCGUUCGACUCGCCCUCGGGAGAUUUUUUCCUCGAGCAA [U16A A23G C82U] as the variant, how does the nonsense suppression read?
**A.** ≤ 0.026

**Q.** Which nonsense suppression does the source give for CUCUCGGUAGCCAAGAUGGUUUGAGGCGCAAGACUUUAAUUUAUCACUACGAAAUCUUGAGAUCGCGCGUUCGACUCGCCCCCGGGAGAUUUUUUCCUCGAGCAA [U16A A23G G66C] here?
**A.** ≤ 0.026

**Q.** Which nonsense suppression does the source give for CUCUCGGUAGCCAAGAUGGUUUACGGCGCAAGACUUUAAUUUAUCACUACGAAAUCUUGAGAUCGGGCGUUCGACUCGCCCCCGGGAAAUUUUUUCCUCGAGCAA [U16A A24C G88A] here?
**A.** ≤ 0.026

**Q.** With CUCUCGGUAGCCAAGAUGGUUUAGGGCUCAAGACUUUAAUUUAUCACUACGAAAUCUUGAGAUCGGGCGUCCGACUCGCCCCCGGGAGAUUUUUUCCUCGAGCAA [U16A A24G G28U U71C] as the variant, how does the nonsense suppression read?
**A.** ≤ 0.026

**Q.** Which nonsense suppression does the source give for CUCUCGGUAGCCAAGAUGGUUUAGGGCGCAAGACUUUAAUUUAUCACUACGAAAGCUUGAGAUCGGGCGUUCGGCUCGCCCCCAGGAGAUUUUUUCCUCGAGCAA [U16A A24G U55G A74G G84A] here?
**A.** ≤ 0.026

**Q.** For CUCUCGGUAGCCAAGAUGGUUUAAGGCGCGAGACUUUAAUUUAUCACUACGAAAUCUUGAGAUCGGGCGUUCGACUCGCCCCCGGGAGAUUUUUUCCUCGAGCAA [U16A A30G], which nonsense suppression is on record?
**A.** 0.312

**Q.** Which nonsense suppression does the source give for CUCUCGGUAGCCAAGAUGGUUUAAGGCGCAUGACUUUAAUUUAUCACUACGAAAGCUUGAGAUCGGGCGUUCGACUCGCCCCCGGGAGAUUUUUUCCUCGAGCAA [U16A A31U U55G] here?
**A.** ≤ 0.026

**Q.** For CUCUCGGUAGCCAAGAUGGUUUAAGGCGCAAGGCUUUAAUUUAUCACUACGAAAUCUUGAGAUCGGGCGUUCGACUCGCCCCCGGGAGAUUUUUUCCUCGAGCAA [U16A A33G], which nonsense suppression is on record?
**A.** 0.0423

**Q.** For CUCUCGGUAGCCAAGAUGGUUUAAGGCGCAAGACUUUAAUUUAUCACUACGAAGUCUUGAGAUCGGGCGUUCGACUUGCCCCCGGGAGAUUUUUUCCUCGAGCAA [U16A A54G C77U], which nonsense suppression is on record?
**A.** ≤ 0.026

**Q.** For CUCUCGGUAGCCAAGAUGGUUUAAGGCGCAAGACUUUAAUUUAUCACUACGAAAUCUUGUGAUCGGGCGUUCGACUCGCCCACGGGUGAUUUUUUCCUCGAGCAA [U16A A60U C82A A87U], which nonsense suppression is on record?
**A.** ≤ 0.026

**Q.** For CUCUCGGUAGCCAAGAUGGUUUAAGGCGCAAGACUUUAAUUUAUCACUACGAAAUCUUGAGGUCGGGCGUUCGAAUCGCGCCCGGGAGAUUUUUUCCUCGAGCAA [U16A A62G C75A C80G], which nonsense suppression is on record?
**A.** ≤ 0.026

**Q.** For CUCUCGGUAGCCAAGAUGGUUUAAGGCGCAAGACUUUAAUUUAUCACUACGAAAUCUUGAGUUCGGGCGUUCGACUCGCCCCCGGGAGAUUUUUUCCUCGAGCAA [U16A A62U], which nonsense suppression is on record?
**A.** ≤ 0.026

**Q.** Which nonsense suppression does the source give for CUCUCGGUAGCCAAGAUGGUUUAAGGGGCAAGACUUUAAUUUAUCACUACGAAAUCUUGAGAUCGGGCGUUCGACUCGCCCCCGGGAGAUUUUUUCCUCGAGCAA [U16A C27G] here?
**A.** ≤ 0.026

**Q.** For CUCUCGGUAGCCAAGAUGGUUUAAGGUGCAAGACUUUAAUUUAUCACUACGAAAUCAUGAGAUCGGGCGUUCGACUCGCCCCCGGGAGAUUUUUUCCUCGAGCAA [U16A C27U U57A], which nonsense suppression is on record?
**A.** ≤ 0.026

**Q.** For CUCUCGGUAGCCAAGAUGGUUUAAGGCGAAAGACUUUAAUUUAUCACUACGAAAUCUUGAGAUCGGGCGUUCGACUCGCCCCCGGGAGAUUUUUUCCUCGAGCAA [U16A C29A], which nonsense suppression is on record?
**A.** ≤ 0.026

**Q.** With CUCUCGGUAGCCAAGAUGGUUUAAGGCGUAAGACUUUAAUUUAUCACUACGAAAUCUUGAGAUCGGGCGUUCGACUCGCCCCCGGAAGAUUUUUUCCUCGAGCAA [U16A C29U G86A] as the variant, how does the nonsense suppression read?
**A.** ≤ 0.026

**Q.** Which nonsense suppression does the source give for CUCUCGGUAGCCAAGAUGGUUUAAGGCGCAAGAAUUUAAUUUAUCACUACGAAAUCUUGAGAUCGGGCGAUCGAUUCGCCCCCGGGAGAUUUUUUCCUCGAGCAA [U16A C34A U70A C75U] here?
**A.** ≤ 0.026

**Q.** For CUCUCGGUAGCCAAGAUGGUUUAAGGCGCAAGAGUUUAAUUUAUCACUACGAAAUCUUGAGAUCCGGCGUUCGAAUCGCCCCCGGGAGAUUUUUUCCUCGAGCAA [U16A C34G G65C C75A], which nonsense suppression is on record?
**A.** ≤ 0.026

**Q.** Which nonsense suppression does the source give for CUCUCGGUAGCCAAGAUGGUUUAAGGCGCAAGAGUUUAAUUUAUCACUACGAAAUCUUGAGAUCGGUCGUUCAACUCGCCUCCGGGAGAUUUUUUCCUCGAGCAA [U16A C34G G67U G73A C81U] here?
**A.** ≤ 0.026

**Q.** Which nonsense suppression does the source give for CUCUCGGUAGCCAAGAUGGUUUAAGGCGCAAGAGUUUAAUUUAUCACUACGAAAUCUUGAGACCGGGCGUUCGACUGGCCCCCGGCAGAUUUUUUCCUCGAGCAA [U16A C34G U63C C77G G86C] here?
**A.** ≤ 0.026

**Q.** Which nonsense suppression does the source give for CUCUCGGUAGCCAAGAUGGUUUAAGGCGCAAGACUUUAAUUUAUCACUACGAAAUAUUGAGAUCGGGCGUUCGACUCGCCCCCGGGAGAUUUUUUCCUCGAGCAA [U16A C56A] here?
**A.** ≤ 0.026
